Assay results taken from patent US6949753B2, “Device and method for photoactivation” (Cerus Corporation, priority 1992, dated 2005).

How the values were obtained:
[1] = tested on: GMP140 on human platelets; test: Platelet activation, GMP140 expression by CD62 antibody and flow cytometry (FACSCAN); type: cell-based; details: PMA 10−^7 M positive control
Description: When platelets become activated, an alpha granule membrane glycoprotein called GMP140 becomes exposed on the platelet surface. Less than (5%) of fresh, normal unstimulated platelets express detectable GMP 140 levels by flow cytometry. See generally M. J. Metzelaar, Studies on the Expression of Activation-Markers on Human Platelets (Thesis 1991).
To measure GMP140, a small aliquot of platelet rich plasma is placed in HEPES buffer containing a GMP140-binding antibody or control mouse IgG. CD62 is a commercially available monoclonal antibody which binds to GMP 140 (available from Sanbio, Uden, the Netherlands; Caltag Labs, So. San Francisco, Calif., and Becton Dickinson, Mountain View, Calif.). After a fifteen minute incubation, Goat Anti-Mouse IgG conjugated to FITC is added to the tube in saturating amounts. Finally, the cells are diluted in isotonic saline, fixed with paraformaldehyde and analyzed on a FACSCAN™ (Becton Dickinson, Mountain View, Calif.). The positive control is made by adding Phorbol Myristate Acetate (PMA) to the test system at a final concentration of 10−^7 M.
In this example, CD62 was employed to measure the impact, if any, of irradiation alone on platelet activation. The antibody was stored in small aliquots (0.01 mg/ml) at −40° C. prior to use. A mouse IgG control (0.05 mg/ml) (Becton Dickinson, Mountain View, Calif. #9040) 5× concentrated was employed. At time of use, this was diluted 1:5 in HEPES buffer. The secondary antibody was goat Anti-Mouse IgG conjugated to FITC (TAGO, Burlingame, Calif. #3506). This was stored in small aliquots at −20° C. Phorbol Myristate Acetate (PMA) (Sigma, St. Louis, Mo.) was stored at −40° C. At time of use, this was dissolved in DMSO (working concentration was 1.62×10−^5 M).
16% Paraformaldehyde (PFA) (Sigma, St. Louis, Mo.) was prepared by adding 16 grams paraformaldehyde to 100 ml de-ionized water. This was heated to 70° C., whereupon 3 M NaOH was added dropwise until the solution was clear. The solution was cooled and the pH was adjusted to 7.4 with 1 N HCl. This was filtered and stored. A commercially available isotonic buffer was used: Hematall Isotonic Diluent (Fisher #CS 606-20).
Following irradiation, the platelets were stored for 5 days. At specific time points, aliquots were taken and processed.
Processing involved adding an aliquot (e.g. 5 microliters) of platelet concentrate to each microcentrifuge tube containing the antibody and appropriate reagents and this was mixed very gently by vortex. The samples were incubated for 15 minutes at room temperature.
The Goat anti-Mouse IgG-FITC (diluted 1:10 in HEPES buffer) was added (5 microliters) to each tube and the solution was mixed by gentle vortex. The samples were incubated for an additional 15 minutes at room temperature.
Isoton II was added (1 ml) to each tube and mixed gently with a polypropylene disposable pipette. 8% PFA in HEPES (150 microliters) was added to each diluted sample to final 1%. The platelets were analyzed on the FACSCAN™.
Shorter Irradiation Times.

[2] = tested on: Yersinia enterocolitica, wild type, serotype 3, biotype 4; test: Inactivation of Yersinia enterocolitica in human platelet concentrate by 8-MOP plus UVA irradiation, colony counts on BHI agar; type: cell-based; details: irr. time 10 min UVA; for log/ml (bacterial titer after treatment): platelet concentrate, 25° C., untreated control 9.1
Description: This organism is found in blood products.

SMILES	Activation, PMA Activated ([1]; Day 3, Control (no irradiation)) [%]	Activation, PMA Activated ([1]; Day 3, UV 5′) [%]	Activation, PMA Activated ([1]; Day 3, UV 10′) [%]	Activation, PMA Activated ([1]; Day 5, Control (no irradiation)) [%]	Activation, PMA Activated ([1]; Day 5, UV 5′) [%]	Activation, PMA Activated ([1]; Day 5, UV 10′) [%]	-titer (change of log titer versus untreated control) ([2]; 8-MOP 3 ug/ml)	log/ml (bacterial titer after treatment) ([2]; 8-MOP 3 ug/ml) [log/ml]	-titer (change of log titer versus untreated control) ([2]; 8-MOP 10 ug/ml)	log/ml (bacterial titer after treatment) ([2]; 8-MOP 10 ug/ml) [log/ml]	-titer (change of log titer versus untreated control) ([2]; 8-MOP 30 ug/ml)	log/ml (bacterial titer after treatment) ([2]; 8-MOP 30 ug/ml) [log/ml]
CCCCCCCCCCCCCC(=O)O[C@@H]1[C@@H](C)[C@@]2(O)[C@@H](C=C(CO)C[C@]3(O)C(=O)C(C)=C[C@@H]23)[C@@H]2C(C)(C)[C@]12OC(C)=O [PMA, Phorbol Myristate Acetate]	85	87	84	89	86	79						
COc1c2occc2cc2ccc(=O)oc12 [8-MOP, 8-methoxypsoralen]							−5.7	3.4	>−9.1	<0	>−9.1	<0
